Measurements: the RNAGym collection of RNA variant scans (doi:10.7554/elife.90254)
The source gives no read counts; variants with many changes may rest on few reads.

B1: LINE1-mini (parent)
chain: GGCAGAGCUCAACACAGCGUGGCAAAGUGGCUGUGGCUAGACUGCC

Variants of: B1
Test: self-cleavage, relative activity (ratio to wild type); higher = more cleavage; in vitro, sequencing; the parent is a self-cleaving ribozyme

Variant | self-cleavage
U20A G21C A41G C46A | 0.13
C3A C15U C42U | 0.43
A24C G30C A41G | 0.03
G30U C31U U34C | 0.1
C3G C13U G17A G22C G27C G29U | 0.1
G5U C13G A24C G44C | 0.02
A6C G21U G27C | 0.06
C10U G21U A41C | 0.05
G1U G7A G22U C31U | 0.09
C8A G27U G33A C45A | 0.46
G2A U20G A24C C31A | 0.05
C3A A6C U34C | 0.16
A11G C15G G36C | 0.01
G1A G7A C8G C18A G36C | 0.02
A6G G30A G33A C46A | 0.04
C3U G17C C18U C23U U32C G35U | 0.07
A12C C15U G19C G33A G44U | 0.01
G1C G21U A24U | 0.3
A12U C23A G35C C45U | 0.11
C23A A39G G44A | 0.04
C10G C15U U28G | 0.1
C3G U9C G22U G30C G44A | 0.1
G1C G7U C8A U38C C46U | 0.05
A12G A14C U20G G35C C46A | 0.02

Variant | self-cleavage
G1A G29U G40A | 0.22
C8U C13U G19A C23A | 0.67
G2C C8G G29A U34A C42A | 0.03
A14C C18U G30U | 0.01
G2U C8A U20C C45A | 0.01
G2U A14C A24U | 0.04
G5U G19U G29U U38G | 0.01
G1A C3G C18U | 0.26
C13G G17A G33C G44A | 0.01
C18A U32C G40C | 0.04
C13G G19U U32C G35A | 0.04
A4C G27C G40C | 0.09
C23A C31U G40U | 0.17
G5A C10U A12G A14U U28C G33U | 0.02
C3A G5U G36A | 0.18
G5A G29U U34G A41C | 0.01
G1A C13G G33C | 0.06
U9G G36C C42G C45A | 0.03
A6C A16U G19C U43C | 0.05
G7A C18G G22C U28C U34C | 0.03
A12U G19U C31A G36U C46G | 0.01
C10A U20A A26U U32G G36C G44U | 0
A11U C15G A16G | 0.02
A6G U28C C37U | 0.03

Variant | self-cleavage
G5C U20A G40A | 0.14
G7U A12U U20C U28G U32A C37A A39U C45G | 0.01
A6G U32A G35A A41G | 0.24
A4G G17A A25U G30C G44U | 0.01
U9G A14C C15U U28A A41C | 0.04
A12G G33C G40U | 0.03
C15A A25U G40C G44C | 0
G5C A11C C42U | 0.05
A6U G33U U43G | 0.25
G1U A6C A14U G17A U38A | 0.11
A4C G29U C31U C45U | 0.04
C15U A24C A26U G36C | 0.04
C15U C18U G19A G33C C37G | 0.02
G27C C31G C46A | 0.02
G2U G21A C37G | 0.07
A11U C13G C18A | 0.03
A6G C10G G19A C31U U32G | 0
U9G U32A U38A | 0
G2U G21U G27A | 0.13
A6C A14C G17U A41G | 0.06
A11G A12G C42G | 0.03
G1A C3U G40U | 0.35
G2U U28A G30A U38A | 0.05
C3U C15G G19U C31A A39C | 0.03

Variant | self-cleavage
G1U U20A C23A A24G G33C A39U C45G | 0.04
G17A C18A G22U G27U G35U U38A | 0.06
C13U G29C C37U U38C | 0.03
G5A A11G G21U C45A C46U | 0.01
G1U A14G A16G A24U | 0.11
G1U A14G A24U | 0.1
G5U A12G C13A G36C | 0
G21U A24U G36U G44A | 0.07
C31A A41G C42U | 0.42
C3G G5U U20A C45G | 0.18
G30U U34C C42A | 0.03
C10U A12U A25U G27U G35A | 0.05
G2A A16C G19C G29C | 0.07
G7U A12C U20A G29A U34A | 0.01
A24G G27A G30A | 1.48
A4U U34C G40U C45G | 0.02
G7U A16U G30A | 0.17
G17U C23A A25C U28C G30A G35U | 0.02
G2U U20A A24G A25U G36U | 0.01
C15A A26G U38C | 0.04
C3A G33C C42U G44A C46U | 0.04
A24C C31G U34C | 0.16
G2C C10U A24U G36U C42G C45G | 0.01
G2A C37U U38A | 0.2

Variant | self-cleavage
G17U U20C A26C G27C A41G G44U | 0.06
G7U C15G G27U U28A | 0.15
G7U A12G U34A C46U | 0.01
C23U A24U A25U G36C | 0.02
A14U G30A U34A | 0.48
C10U A14G U20C U32A G40U | 0.07
C23G A24C G29A C37U | 0.02
C3G C8U A25G G30A G44A | 1.6
G5A A16U G33C G44A | 0.12
C10U U34A G44U | 0.05
G2C C10A G17U C31A G40A | 0
G19A G44U C46G | 0.56
G36C C37A A39C | 0.06
A4U C31U U34C | 0.09
G5U G36U C45G | 0.02
A26C G33U C42U | 0.09
G5C G19U G35C C42G | 0.09
G5A A11C A16U U38A A39G | 0.03
G17A G22U A41G | 0.07
G5A G30U C31G | 0.09
C13U C31G C46G | 0.07
U20A G36A C45A | 0.04
C10U G19C G22U U28G G29U C42U | 0.07
A12G G19C C23U C42A | 0.04

Variant | self-cleavage
C10A A25C G44A | 0.04
A4U G5U G7A G44U | 0.26
G17U G40A C45U | 0.03
C18U G33C C45A | 0.02
G5A A12U C13U G21C | 0.13
G5A A6G G7U G27C U32C | 0
U9A A24U G33C G36A | 0.01
G17A C23A G33C | 0.03
G2U G7U C46U | 0.04
C10A A12C A25G G33U | 0.04
C3A G21C G36C C46A | 0.65
C8G G22U C31A | 0.13
C3A G19U C23G | 0.29
A6G G7U U43C | 0.02
G17C G21U A41C | 0.02
A11U C31G U34G C37A A39U | 0
A4G C10A C15U | 0.02
C8G G30U U38A C46U | 0.06
G1U C15G C18U C23U G33C C46G | 0.42
C8G G19C C37G | 0.04
G17A C31A A39U | 0.15
A6C C15U U32C C42G | 0
G7U C18G G40U C46U | 0.01
G7A G33C A39U | 0.01

Variant | self-cleavage
C10A A14C G29A G35C | 0.02
G5C A6U G17U G21C A24G U34C | 0.08
C23A A24U G35U C46U | 0.04
C3G G19C G22A A39U C42G G44C | 0
G1A C15A C45A | 0.02
A6G G33A C37U | 0.01
C10U C13U G40A | 0.03
C10U A14U C37U | 0.04
C10A A14C A16C U38G G44A | 0.01
A25C C31A G36U C42U | 0.03
G5C G19C G29C G33C | 0.01
C3U A4G G7C C31G C46G | 0.04
G1C G7A U9G C13U A25C A26U | 0.01
C10G A12U G27A U32C | 0.01
C10G G17A G21C C23A G33U | 0.01
A14C G27U U34C G35A | 0.02
U20C G35U A39C | 0.03
A24G A25C G44C | 0.16
C10A G17U A24G A26C A41C | 0.08
G5C A16C G33U | 0.05
C3A A26C C31G | 0.11
G7A C23G U38A U43A | 0
A11G G17A C31A | 0.01
